Experimental data as given in PubChem BioAssay AID904 (National Center for Advancing Translational Sciences (NCATS), 2007).
About 530 (0.96%) of roughly 55,000 compounds were called active. Inconclusive means that the source gave no clear call. Such entries were picked first, then a sample of the others. Calls follow the shape of the dose curve; as a rule, active = well fitted cell-killing curve with a large enough effect; inconclusive = small, poorly fitted or top-dose-only effect; inactive = no such curve, though single readings can be large or run the other way. Potencies beside an inconclusive call are fits to weak or partial responses and may not hold up.

test: qHTS Screen for Compounds that Selectively Target Cancer Cells with p53 Mutations: Cytotoxicity of p53 Null Cells at the Nonpermissive Temperature; settings: H1299 p53-null (neo) cells, 39C, ATPlite viability, 24 h; series mostly up to 46.1 µM; also: nearly all actives have a fitted effect of over 50% in size
Excerpt: NIH Chemical Genomics Center [NCGC] NIH Molecular Libraries Screening Centers Network [MLSCN] MLSCN Grant: 1 X01 MH079844-01 Assay Submitter (PI): Dr. SUN, YI, University of Michigan NCGC Assay Overview: Synthetic Lethal Screen for Compounds to Kill Cancer Cells with p53 Mutation. Tumor suppressor gene p53 serves as a major cellular barrier against tumorigenesis. […] The goal of this screening is to identify small molecule probes that selectively kill cancer cells with mutations in p53. This screening was carried out using two lines of H1299 lung cancer cells. The H1299-p53 A138V line express a temperature sensitive p53 mutant (p53ts) in which the mutant p53 protein (A138V) is in the mutant confirmation when grown at 39C (the nonpermissive temperature) and in the wild type conformation when grown at 32C (the permissive temperature). A H1299-neo line (p53 null) grown at both 39C and 32C were used as counter-screens to filter out false positive associated with temperature shifting. The small molecular compounds that selectively target mutant p53-containing cancer cells were selected as candidate probes for further study. A cytotoxicity assay based on the measurement of ATP contents in cells was used in this screen. Concentration-responses of all the compounds in the library collection were determined in qHTS using the cell lines and temperature conditions as above.
NCGC Assay Protocol Summary: Both the H1299-p53A138V and H1299-neo cell lines were provided by Dr.Yi Sun, a PI at the University Michigan. The cells were maintained and cultured at 37C. The resuspended frozen cells were used to plate the cells in the 1536-well assay plates at a density of 600 cells per well in 5 ul medium. The assay plates with the cells were incubated at 37C for 16 to 30 hours before the experiments. The library compounds in DMSO solution were added to the cells in assay plates and incubated 24 hours at 39C (for mutant p53 conformation) or 32C (for normal p53 conformation as control). An ATP_lite assay kit (PerkinElmer) was used to determine the cell viability. Tomaxifen (100uM) was used as the positive control for cell killing. Data were normalized to the controls for basal activity (DMSO only) and 100% killing (100uM tamoxifen). AC50 values were determined from concentration-response data modeled with the standard Hill equation. P53 assay protocol: 1. Reagent; 5 uL H1299-p53A138V or H1299-neo cell cells/well 2. Time; overnight; 37C incubation 3. Compounds; 23 nL; 5.9 nM to 46 uM 4. Controls; 23 nL; Tamoxifen 100 uM 5. Time; 24 hr; 39C incubation 6. Reagent; 3 uL; ATP_Lite reagent 7. Time; 20 min; Room Temperature 8. Detection; Luminescence; Viewlux plate reader Keywords: p53, synthetic lethal, cancer, cell viability, cytotoxicity, H1299 cell line, luminescence, MLSMR, MLSCN, NIH Roadmap, qHTS, NCGC
Potency is read from the fitted curve at half-maximal effect; tags tell the direction and shape of the fitted curve.

Structure (SMILES) | Potency
Cc1nn(-c2ccc(N3CCCCC3)nn2)c(C)c1CCC(=O)Nc1cccc(F)c1 | inconclusive: 7.94 µM [cytotoxic, partial curve]
Fc1ccc(-n2ncc3c(NCCCc4ccccc4)ncnc32)cc1 | inactive
CC1=C(C(=O)Nc2ccc(C)cc2C)C(c2cc(Br)ccc2F)n2ncc(C(=O)Nc3ccc(C)cc3)c2N1 (stereo not given) | inconclusive: 1.58 µM [cytotoxic, partial curve, poor fit]
COc1ccc(C(C)=O)cc1CSc1nc(NCc2ccc(Cl)cc2)c2ccccc2n1 | inactive
Cc1ccc(NC(=O)C2CCCN(c3nc4ccccc4s3)C2)c(C)c1 (stereo not given) | inconclusive: 1.58 µM [cytotoxic, partial curve, poor fit]
COc1ccc(/C=C/C(=O)Nc2cccc(F)c2)cc1 | inconclusive: 7.94 µM [cytotoxic, partial curve]
COc1ccc(CNC(=O)C2CCN(c3nnc(C)c4c(C)n(-c5ccc(C)cc5)nc34)CC2)cc1 | active: 12.6 µM
CCCOC(=O)c1cccc(Nc2nc(C(=O)OCC)nc3ccccc23)c1 | inconclusive: 35.5 µM [cytotoxic, single point]
O=C(OCc1ccco1)c1ccc2c(c1)N(Cc1ccc([N+](=O)[O-])cc1)C(=O)c1ccccc1S2 | inconclusive: 0.0355 µM [cytotoxic, full curve, poor fit]
Cc1ccc(C(C)C)c(OCc2ccc(C(=O)Nc3ccc(S(N)(=O)=O)cc3C)o2)c1 | inconclusive: 20 µM [cytotoxic, single point]
Cc1ccc(S(=O)(=O)c2nc(-c3ccco3)oc2SCC(=O)c2ccc(Cl)cc2)cc1 | inconclusive: 25.1 µM [cytotoxic, single point]
CCOc1ccc(CCNC(=O)c2ccc(C)c(-n3cnc4cccnc43)c2)cc1 | inconclusive: 3.98 µM [cytotoxic, full curve, poor fit]
Cc1ccc(S(=O)(=O)N2CCC(c3nnc(-c4cccc(C)c4)o3)CC2)cc1 | inactive
CCOC(=O)c1ccc2nc(NC(=O)c3ccco3)sc2c1 | inconclusive: 12.6 µM [cytotoxic, single point]
Cc1ccc(SCC(=O)Nc2ccc3oc(-c4ccc(F)cc4)nc3c2)cc1 | inconclusive: 0.316 µM [cytotoxic, full curve]
Cc1ccc(C)c(NC(=O)CSc2nc(=O)n(CCN(C)C)c3c2CCC3)c1 | inconclusive: 0.0045 µM [cytotoxic, full curve, poor fit]
Cc1cccn2c(Nc3ccccc3)c(-c3ccc(N4CCOCC4)cc3)nc12 | inactive
COc1ccc(CCNC(=O)CSc2ncc3c(n2)-c2cc(Cl)ccc2N(Cc2ccccc2)S3(=O)=O)cc1OC | inconclusive: 31.6 µM [cytotoxic, single point]
CCOC(=O)C1CCN(S(=O)(=O)c2cc(-c3onc(C)c3C)ccc2OC)CC1 | inconclusive: 5.62 µM [cytotoxic, single point]
COc1ccc(NC(=O)c2ccc3c(=O)n4nc(Nc5cc(C)ccc5C)sc4nc3c2)cc1 | inconclusive: 31.6 µM [cytotoxic, single point]

Structure (SMILES) | Potency
Cc1ccc(Nc2nnc(-c3ccc(C)c(S(=O)(=O)N4CCN(C)CC4)c3)c3ccccc23)c(C)c1 | inconclusive: 31.6 µM [cytotoxic, single point]
CCOC(=O)CSc1nc2ccc(NC(=O)c3ccc(F)cc3)cc2s1 | inconclusive: 7.94 µM [cytotoxic, partial curve, poor fit]
Cc1cccc(NC(=O)c2sc(C)nc2C)c1 | inconclusive: 11.2 µM [cytotoxic, partial curve]
CCc1ccc(Oc2nc3c(C)cccn3c(=O)c2/C=C(\C#N)c2nc3ccccc3[nH]2)cc1 | inactive
Cc1nnc(N2CCCC(C(=O)Nc3ccccc3C(F)(F)F)C2)c2nn(-c3ccccc3)c(C)c12 (stereo not given) | inactive
CCOc1nc(NC(=O)NS(=O)(=O)Oc2cccc(F)c2)nc(-c2ccccc2)n1 | inconclusive: 6.31 µM [cytotoxic, single point]
COc1cccc(-c2ccc3c(N)c(C(=O)Nc4ccc(Cl)cc4F)sc3n2)c1 | inconclusive: 3.98 µM [cytotoxic, full curve]
COc1cccc(CSc2nc3ccccc3[nH]2)c1 | inconclusive: 5.01 µM [cytotoxic, partial curve, poor fit]
Cc1ccc(C(=O)CSc2nc3cc(C(=O)NC4CCCC4)ccc3c(=O)n2CC2CCCO2)cc1 (stereo not given) | inactive
CCOc1ccccc1C1CC(=O)NC(C)=C1C(=O)OC1CCCCCC1 (stereo not given) | inactive
CCOC(=O)c1c(Nc2cccc(O)c2)nnc(-c2ccccc2)c1-c1ccccc1 | inconclusive: 25.1 µM [cytotoxic, single point]
Cc1ccc(Cl)cc1N1CCN(C(=O)CN2C(=O)COc3ccc(S(=O)(=O)N4CCOCC4)cc32)CC1 | inactive
COc1c(Cl)cc(C(=O)Nc2cccc(-c3nc4ccccc4[nH]3)c2)cc1Cl | inconclusive: 31.6 µM [cytotoxic, single point]
O=C(Nc1nnc(S(=O)(=O)N2CCCCCC2)s1)c1ccc(Br)cc1 | inconclusive: 7.94 µM [cytotoxic, partial curve, poor fit]
CCN1CCN(C(=O)c2ccc3c(c2)N(Cc2ccc(Cl)cc2)C(=O)c2ccccc2S3(=O)=O)CC1 | inconclusive: 0.0562 µM [cytotoxic, full curve, poor fit]
COc1ccc(-c2noc(-c3cccnc3NCc3ccco3)n2)cc1 | inactive
CCc1ccc(-c2nc(CN3CCCC(C(=O)N4CCN(c5cc(Cl)ccc5C)CC4)C3)c(C)o2)cc1 (stereo not given) | inconclusive: 20 µM [cytotoxic, single point]
COc1ccc2nc(-c3ccc(N)cc3)[nH]c2c1 | inconclusive: 14.1 µM [cytotoxic, partial curve]
COc1cccc(OCCSc2nc3ccccc3n2CC(=O)N2CCCCC2)c1 | inconclusive: 0.01 µM [cytotoxic, full curve, poor fit]
CC(=O)Nc1cccc2c1C(=O)N(c1ccc(C)cc1)C2=O | inactive
